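Where inhibition never reached the appropriate level, the endpoint shown equals the highest concentration tested. Otherwise, values were interpolated linearly from a five-concentration, 48-hour dose response in 96-well plates. The concentration for 50% growth inhibition is given as GI50.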 The source made the active and inactive calls. Rule as the data show it: active = GI50 up to about 1.1 µM and inactive = higher.

The assay concerns NCI-H322M. Kind of assay: NCI anticancer screen, dose series, 48 h.
Regarding `O=C(NCCCN(CCCCN(CCCNC(=O)c1cc(S(=O)(=O)O)cc(O)c1O)C(=O)c1cc(S(=O)(=O)O)cc(O)c1O)C(=O)c1cc(S(=O)(=O)O)cc(O)c1O)c1cc(S(=O)(=O)O)cc(O)c1O`, the GI50 was inactive: > 100 µM. Regarding `Sc1nc2c(c(-c3nc(S)nc4c3CCCCCCCCCC4)n1)CCCCCCCCCC2`, the GI50 is inactive: > 100 µM. Consider `CC(CO)(Nc1ccc([N+](=O)[O-])cc1[N+](=O)[O-])C(=O)O` (configuration not stated), for which the GI50 is inactive: > 100 µM.

Turning to `O=[N+]([O-])c1cc(I)cc(/C=N/NS(=O)(=O)c2ccc(Cl)cc2)c1O`, the GI50 was inactive: 27.1 µM. With `O=C1CCCc2c1c1c(n2Cc2ccccc2)-c2ccccc2C1=O`, the GI50 was inactive: 10.7 µM.

`COc1nc2ncc([C@@H](OC(C)=O)[C@@H](COC(C)=O)OC(C)=O)nc2c(=O)[nH]1`: the GI50 was inactive: > 100 µM. Regarding `CNC(=O)c1nnn(Cc2ccccc2)c1S`, the GI50 is inactive: > 100 µM. With `C[N+]1(C)C/C(=C\C=C\c2ccccc2)C(=O)/C(=C/C=C/c2ccccc2)C1`, the GI50 is inactive: 32.4 µM. As for `CN(C)c1cccc(-c2cc(=S)c3cc4c(cc3[nH]2)OCO4)c1`, the figure is inactive: 6.34 µM; as for `CC(=O)N(C(C)=O)c1ncc(-n2nc(-c3ccccc3)cc2-c2ccccc2)c(-c2ccccc2)n1`, inactive: > 10 µM. On to `CN(C)C(=O)C(F)(F)C(c1ccccc1Br)C1C(=O)N(C)C(=O)N(C)C1=O` (configuration not stated), for which the GI50 was inactive: > 100 µM. As for `O=C1C2CC=CCC2C(=O)N1n1c(Cc2ccccc2)n[nH]c1=O` (configuration not stated), the GI50 was inactive: > 100 µM. For `CC(Cc1cccc2c1Nc1ccccc1S2)N(C)CCO` (configuration not stated), the GI50 was inactive: > 100 µM. Consider `Cc1ccc(-n2cnc3c(N)nc(N)nc32)cc1`, for which the GI50 is inactive: > 100 µM. In the case of `COc1ccc(/C=C/c2cc(OC)c(OC)c(OC)c2)cc1O[Si](C)(C)C(C)(C)C`, the GI50 is inactive: 9.35 µM. In the case of `O=C1OC2C=CC1C1(CCOC1=O)C2` (configuration not stated), the GI50 was inactive: > 100 µM.

`Cc1cccc2c1Oc1cc(Cl)ccc1C2NC(=O)CCN1CCOCC1` (configuration not stated): the GI50 was inactive: > 100 µM.

Regarding `O=C1NC(=O)C2C(=O)NC(=O)C1C2Cc1ccco1` (configuration not stated), the GI50 was inactive: > 100 µM.

In the case of `Cc1cc(C)n(C(C)(C(=O)Cc2ccccc2)n2nc(C)cc2C)n1`, the GI50 is inactive: > 100 µM.

`OC(CC(CC(O)(C(F)(F)Cl)C(F)(F)Cl)=NNc1ccccc1)(C(F)(F)Cl)C(F)(F)Cl`: the GI50 was inactive: 3.86 µM. Take `CC1(C)CC2CC(CC(C)(C)C2=O)C1=O`: the GI50 was inactive: > 100 µM. As to `N#CC(/N=N/c1ccccc1C(=O)O)C(N)=O` (configuration not stated), the GI50 was inactive: > 100 µM. In the case of `COc1ccc(/C=N/N=C(\N)NO)c(OC)c1C`, the GI50 was inactive: 5.74 µM.

`Cc1cn(CC(=S)NCCc2c[nH]c3ccccc23)c(=O)[nH]c1=O`: the GI50 was inactive: > 100 µM. On to `CC(=O)Nc1ccc(Nc2nc(=O)[nH]c(=O)[nH]2)cc1`, for which the GI50 is inactive: > 100 µM. For `Cc1ccccc1/C=N/C12CC3CC(CC(C3)C1)C2`, the GI50 is inactive: > 100 µM. Consider `Cc1nc(-c2nc(C)c(C(=O)/C=C/c3ccc(N(C)C)cc3)s2)sc1C(=O)/C=C/c1ccc(N(C)C)cc1`, for which the GI50 is inactive: > 100 µM.

Take `CCCC(=O)N1CCN(c2ccc3c(c2)OC(C)O3)CC1` (configuration not stated): the GI50 was inactive: > 100 µM. Next, `CC(C)c1cc(C(C)C)c(P2(=O)CC3C(Cl)(Cl)C3(C)C2)c(C(C)C)c1` (configuration not stated): inactive: 15 µM. In the case of `CC(=O)c1cccc(NC(=O)/C(=N\NC(=S)NN)C2C(=O)Nc3ccccc3[S+]2[O-])c1` (configuration not stated), the GI50 is inactive: > 100 µM. As to `CC1=Nc2nc3ccccc3n2C(C)(C)C1`, the GI50 was inactive: > 100 µM. `C=C(C)[C@@H](O)[C@H](O)C[C@H](C)C1CC[C@]2(C)C1=CC[C@@H]1[C@@]3(C)CC[C@@H](OC(C)=O)C(C)(C)[C@@H]3C[C@@H](OC3OC(COC(C)=O)C(O)C(O)C3O)[C@]12C` (some centres not stated): the GI50 was inactive: 2.18 µM. As for `C=CC[C@H]1[C@@H](O[Si](C)(C)C(C)(C)C)[C@H](n2ccc(=O)[nH]c2=O)O[C@@H]1CO[Si](C)(C)C(C)(C)C`, the GI50 was inactive: 2.12 µM. `Cc1ccc(S(=O)(=O)NNC(C[N+](=O)[O-])c2ccccc2)cc1` (configuration not stated): the GI50 is inactive: 29.2 µM. As for `Cc1ccc2nc(-c3nccn3C)cc(C(=O)NC(C)CN(C)C)c2c1` (configuration not stated), the figure is inactive: > 100 µM; as for `Cc1cc2c(C)nn(Cc3ccccc3)c2c(C(N)=O)c1C`, inactive: > 100 µM. As for `C=CCN1/C(=C2\SC(=S)N(c3ccc(C)cc3)C2=O)Sc2c1ncn(C)c2=O`, the GI50 is inactive: > 100 µM.

`Brc1cccc(C2(CCCC3(c4cccc(Br)n4)OCCO3)OCCO2)n1`: the GI50 is inactive: > 100 µM. Next, `O=C1c2ccccc2N2OC3(N4CCCC4)CCCCC3C12c1ccccc1` (configuration not stated): inactive: > 100 µM; `COC1=C(OC)C(=O)C(Cc2c(Cl)nc3n2CCS3)=C(C)C1=O`: inactive: 16.1 µM; `CN(C)CCNc1ncnc2nc(-c3ccccc3)c(-c3ccccc3)nc12`: inactive: > 100 µM.

With `N#C/C(=C\c1cc2ccccc2c2ccccc12)c1ccccc1`, the GI50 is inactive: 11.1 µM.

As to `CCCCCCCCCCCC[S+](C)C`, the GI50 is inactive: 12.6 µM. With `CC(C)(Cc1ccccc1)NC1=NCCO1`, the GI50 is inactive: > 100 µM. On to `CCOC(=O)c1c(-c2ccc(OC)cc2)c(C#N)c(=S)n(C2OC(CO)C(O)C(O)C2O)c1-c1ccccc1` (configuration not stated), for which the GI50 was inactive: > 100 µM. In the case of `CCOC(=O)Cc1nc(/C(C#N)=C/c2ccco2)[nH]c(=O)c1C#N`, the GI50 is inactive: 8.3 µM. As for `COc1cc2c(cc1O)C1Cc3ccc(OC)c(O)c3C[N+]1(C)CC2` (configuration not stated), the GI50 was inactive: > 100 µM. Turning to `C1CSC[C@H]2COC[C@@H](CSCCS1)S2`, the GI50 was inactive: > 100 µM. With `C=C(CN(C)C)C(=O)c1ccccc1OC`, the GI50 is inactive: > 71.1 µM. Consider `COc1cc2nc3n(c2cc1OC)C(O)c1c(Cl)nc(SC)nc1S3` (configuration not stated), for which the GI50 was inactive: 13.5 µM.

For `[N-]=[N+]=NC(c1cn(C2CC(O)C(CO)O2)c(=O)[nH]c1=O)C(Cl)Br` (configuration not stated), the GI50 is inactive: > 100 µM.

On to `NCCCN(CCCCN(CCCN)Cc1ccccc1)Cc1ccccc1`, for which the GI50 is inactive: 32.4 µM. `COc1ccc(/N=N/c2c(C)c(C#N)c(=S)n(C3OC(CO)C(O)C(O)C3O)c2C)cc1` (configuration not stated): the GI50 is inactive: > 100 µM.

As for `O=C1N/C(=N/N=C/C(O)C(O)C(O)CO)N/C1=C\c1c[nH]c2ccccc12` (configuration not stated), the GI50 is inactive: > 100 µM. On to `NS(=O)(=O)c1ccc(NC(=S)N/C=C2\C(=O)Oc3ccccc3C2=O)cc1`, for which the GI50 was inactive: 39.4 µM. As for `O=C(CSc1nc(O)nc2[nH]cnc12)Nc1ccccc1`, the GI50 was inactive: > 100 µM.

For `Cn1c2ccccc2c(=O)c2cccc(C(=O)NC(CCCNC(=N)N)C(=O)O)c21` (configuration not stated), the GI50 was inactive: > 100 µM. Next, `O=c1[nH]n2c(=O)cc[nH]c2c1-c1nnns1`: inactive: > 100 µM. Consider `N#Cc1c(NC(=S)NC(=O)c2ccccc2)nc2c(c1-c1ccccc1)CCC2`, for which the GI50 is inactive: > 100 µM.

For `Fc1ccc(/N=C/C=C/Nc2ccc(F)cc2)cc1`, the GI50 was inactive: 12.7 µM.

`C=CCOc1ccc(C(=N/NC(=O)c2ccccc2)/N=N/c2ccc([N+](=O)[O-])cc2)cc1OC`: the GI50 is inactive: 38.5 µM. In the case of `N#Cc1c(N)c2c(c(-c3ccccc3)c1-c1ccccc1)C(=O)N(Nc1ccccc1)C2=O`, the GI50 is inactive: 3.79 µM. For the compound `Cc1cnc(-n2c(C)nc3cc(Cl)ccc3c2=O)s1`, the GI50 is inactive: 28.1 µM. Next, `CN(C)CCO/N=C1/C=C2CC[C@H]3[C@@H]4CC[C@H](O)[C@@]4(C)CC[C@@H]3[C@@]2(C)CC1`: inactive: 11.5 µM.

Turning to `O=c1[nH]c2ccc(O)cc2o1`, the GI50 was inactive: > 100 µM. Turning to `[N-]=[N+]=Nc1cc(=O)n(-c2ccccc2)c2ccccc12`, the GI50 is inactive: > 100 µM. As for `O=C1C(=CNc2ccccc2Cl)C(=O)N(c2ccccc2)C(=O)N1c1ccccc1`, the GI50 was inactive: > 100 µM. Take `COc1ccc(OC)c([N+](=O)[O-])c1-c1nc2sc(C)c(C)n2c1/C=N/N=C(N)N`: the GI50 is inactive: 64.1 µM. As to `COc1ccc(C(C)Nc2cc(OC)c(OC)c(OC)c2)cc1` (configuration not stated), the GI50 was inactive: 5.79 µM. Consider `CSc1c(C#N)c(O)nc(N)c1C(=O)Nc1ccc(C)cc1`, for which the GI50 was inactive: > 100 µM. As for `O=C1OCC2C1C1c3ccccc3C(O)c3ccccc3C21` (configuration not stated), the GI50 is inactive: > 100 µM. Regarding `CCN(CC)CCOC(c1ccccc1)c1ccccc1.CCOC(=O)Nc1ccc(S(=O)(=O)OC)cc1.CCOC(=O)Nc1ccc(S(=O)(=O)OC)cc1.Nc1ccc(C(=O)O)c(O)c1`, the GI50 was inactive: > 100 µM.

In the case of `NCC(O)CSP(=O)(O)O` (configuration not stated), the GI50 was inactive: > 100 µM.

For `CC(C)CCCC(C)[C@H]1CCC2[C@@H]3CCC4Nc5c(cnn5-c5ccccc5)C[C@]4(C)C3CC[C@@]21C` (some centres not stated), the GI50 is inactive: > 100 µM. Next, `CCOC(=O)Oc1c(OC)cc(C(=O)NC2CCc3cc(OC)c(OC)c(OC)c3-c3ccc(SC)c(=O)cc32)cc1OC` (configuration not stated): active: 0.53 µM. `CC1=C2[C@@H](c3ccccc3)C3C=CC2(c2ccccc23)N(C(=O)Nc2cccc3ccccc23)C1=O` (some centres not stated): the GI50 was inactive: > 100 µM. Turning to `COc1nc2c(c(=O)n1C)N(C(C)=O)C1C(N2)OCC(OC(C)=O)C1OC(C)=O` (configuration not stated), the GI50 was inactive: > 10 µM. Next, `CC(=O)C1C(=O)C(=O)N(c2ccc([N+](=O)[O-])cc2)C1=O` (configuration not stated): inactive: > 100 µM. As for `Cc1cc(-c2nc3cc(O)ccc3s2)ccc1N`, the figure is inactive: 29.1 µM. As to `c1cc(C[S+]2CCCC2)ccc1C[S+]1CCCC1`, the GI50 is inactive: > 100 µM. Regarding `CCc1nc(N)nc(N)c1-c1ccc(Cl)c(/N=N/N(C)C)c1`, the GI50 is inactive: 47.1 µM. Consider `CCC(CCCN)Nc1cc(OC)cc2c(C)ccnc12` (configuration not stated), for which the GI50 is inactive: 14.6 µM.

These data come from ChEMBL document CHEMBL1201862, “PubChem BioAssay data set” (2004).
